Data reported in the supplement of paper PMC12582362.
Structures can show the parent of a compound that is named as a salt. Screen size: about 1,500 compounds; about 30 (2%) showed activity.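 Rule for the calls: active = robust z-score below -2; a few such results were not called.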 This is one part of the list.

What follows are molecules tested on optoTopBP1 Flp-In 293 T-REx (HEK293) cells (assay: light-induced TopBP1 condensate (nuclear foci) count, plate-normalised robust z-score vs non-control wells; higher = more TopBP1 condensates (negative = condensation inhibitor), active = hit call of the paper). Details: 10 µM; incubation time 2 h.

Compound	light-induced TopBP1 condensate (z-score)
Cc1ccc(NC(=O)c2ccc(CN3CCN(C)CC3)cc2)cc1Nc1nccc(-c2cccnc2)n1 [Imatinib]	inactive: -1.22
O=C(O)c1cn(C2CC2)c2cc(N3CCNCC3)c(F)cc2c1=O [Ciprofloxacin hydrochloride monohydrate]	inactive: 0.0624
CCOc1nc2cccc(C(=O)OCc3oc(=O)oc3C)c2n1Cc1ccc(-c2ccccc2-c2noc(=O)[nH]2)cc1 [Azilsartan kamedoxomil]	inactive: 1.97
C#CCN[C@@H]1CCc2ccccc21 [Rasagiline]	inactive: -0.891
COc1ccc(-c2cc(=S)ss2)cc1 [Anethole-trithione]	inactive: 0.0414
COc1cc(C(=O)NCc2ccc(OCCN(C)C)cc2)cc(OC)c1OC [Trimethobenzamide hydrochloride]	inactive: -0.218
CCCN1CCCC[C@H]1C(=O)Nc1c(C)cccc1C [Ropivacaine hydrochloride]	inactive: -0.165
C1CCC(C(CC2CCCCN2)C2CCCCC2)CC1 (centres undefined) [Perhexiline maleate]	inactive: -1.93
CC(C)NCC(O)COc1ccc(CCOCC2CC2)cc1 (centres undefined) [Betaxolol hydrochloride]	inactive: 1.25
CCc1nc(N)nc(N)c1-c1ccc(Cl)cc1 [Pyrimethamine]	inactive: 1.18
CC(=O)[C@@]1(O)CC[C@H]2[C@@H]3C[C@H](C)C4=CC(=O)C=C[C@]4(C)[C@@]3(F)[C@@H](O)C[C@@]21C [Fluorometholone]	inactive: -0.232
CC(C)=C/C(C)=N/Nc1nncc2ccccc12 [Budralazine]	inactive: -0.574
CCN(CC)CCNC(=O)c1cc(Cl)c(N)cc1OC [Metoclopramide monohydrochloride]	inactive: -0.224
CCOc1ccc2ccccc2c1C(=O)N[C@@H]1C(=O)N2[C@@H]1SC(C)(C)[C@@H]2C(=O)O [Nafcillin sodium salt monohydrate]	inactive: 0.719
CC(C)(CO)C(O)C(=O)NCCCO (centres undefined) [Panthenol (D)]	inactive: 0.585
CN(C)C/C=C(/c1ccc(Br)cc1)c1cccnc1 [Zimelidine dihydrochloride monohydrate]	inactive: 0.813
Cn1cnc2c1c(=O)[nH]c(=O)n2C [Theobromine]	inactive: -1.12
CC1=NN(c2ccccc2)C(=O)C1 [Edaravone]	inactive: -0.68
CCC[C@@H]1C[C@@H](C(=O)N[C@@H]([C@H]2O[C@H](SC)[C@H](O)[C@@H](O)[C@H]2O)[C@H](C)Cl)N(C)C1 [Clindamycin hydrochloride]	inactive: 0.556
O=C(O)CCNC(=O)c1ccccc1 [Betamipron]	inactive: -0.17
O=C(N[C@H](CO)[C@H](O)c1ccc([N+](=O)[O-])cc1)C(Cl)Cl [Chloramphenicol]	inactive: 1.68
C=C1/C(=C\C=C2/CCC[C@]3(C)[C@@H]([C@H](C)CCCC(C)C)CC[C@@H]23)C[C@@H](O)C[C@@H]1O [Alfacalcidol]	inactive: -0.899

Compound	light-induced TopBP1 condensate (z-score)
Cc1ccc2c(c1)c1c3n2CCNC3CCC1 (centres undefined) [Pirlindole mesylate]	inactive: 0.854
CN(C)CCC=C1c2ccccc2COc2ccccc21 [Doxepin hydrochloride]	inactive: -1.36
CN1CCC[C@@H]1Cc1c[nH]c2ccc(CCS(=O)(=O)c3ccccc3)cc12 [Eletriptan]	inactive: -0.0129
CC(C)[N+](C)(CCOC(=O)C1c2ccccc2Oc2ccccc21)C(C)C [Propantheline bromide]	inactive: -0.0433
CC(C)Cc1ccc(CC(=O)O)cc1 [Ibufenac]	inactive: -0.127
Nc1ccccc1S(N)(=O)=O [2-Aminobenzenesulfonamide]	inactive: -1.04
COc1ccccc1Oc1c(NS(=O)(=O)c2ccc(C(C)(C)C)cc2)nc(-c2ncccn2)nc1OCCO [Bosentan]	inactive: 0.343
NS(=O)(=O)c1cc2c(cc1Cl)NC(C(Cl)Cl)NS2(=O)=O (centres undefined) [Trichlormethiazide]	inactive: 0.564
CN[C@@H]1[C@H](O)[C@H](NC)[C@H]2O[C@@]3(O)C(=O)C[C@@H](C)O[C@H]3O[C@@H]2[C@H]1O [Spectinomycin dihydrochloride]	inactive: 0.546
Cc1onc(-c2ccccc2Cl)c1C(=O)N[C@@H]1C(=O)N2[C@@H]1SC(C)(C)[C@@H]2C(=O)O [Cloxacillin sodium salt]	inactive: -0.159
N[C@@H](C(=O)N[C@@H]1C(=O)N2C(C(=O)O)=C(Cl)CC[C@H]12)c1ccccc1 [Loracarbef]	inactive: 0.325
C#Cc1cccc(Nc2ncnc3cc(OCCOC)c(OCCOC)cc23)c1 [Erlotinib]	inactive: 1.27
CC(C)Nc1cccnc1N1CCN(C(=O)c2cc3cc(NS(C)(=O)=O)ccc3[nH]2)CC1 [Delavirdine]	inactive: 0.915
CN[C@@H]1[C@@H](O[C@H]2O[C@H](CO)[C@@H](N)[C@H](O)[C@H]2O)OC2C[C@@H](N)[C@@H](O[C@H]3[C@H](O)[C@@H](O)[C@H](N)C[C@@H]3N)OC2[C@@H]1O (some centres undefined) [Apramycin]	inactive: 0.974
Cc1c(-c2ccccc2)oc2c(C(=O)OCCN3CCCCC3)cccc2c1=O [Flavoxate hydrochloride]	inactive: -0.363
CCOC(=O)C(C)(N)Cc1cc(I)c(Oc2cc(I)c(O)c(I)c2)c(I)c1 (centres undefined) [Etiroxate hydrochloride]	inactive: -0.327
CCCCc1cc2ccccc2c(OCCN(C)C)n1 [Dimethisoquin hydrochloride]	inactive: -1.52
CC(C(=O)O)c1ccc2c(c1)[nH]c1ccc(Cl)cc12 (centres undefined) [Carprofen]	inactive: -0.54
Cc1cccc(C)c1NC(=O)C(C)N (centres undefined) [Tocainide hydrochloride]	inactive: 1.66
Cc1ccccc1C(=O)Nc1ccc(C(=O)N2CCCC(O)c3cc(Cl)ccc32)c(C)c1 (centres undefined) [Tolvaptan]	inactive: -0.617
Cc1cccc(C)c1NC(=O)CC12CCCN1CCC2 [Pilsicainide Hydrochloride]	inactive: -0.679
Nc1nc2[nH]cnc2c(=S)[nH]1 [Tioguanine]	inactive: 0.487

Compound	light-induced TopBP1 condensate (z-score)
CC(C)c1cc2c(cc1S(=O)(=O)O)[C@@]1(C)CCC[C@@](C)(C(=O)O)[C@@H]1CC2 [Ecabet sodium]	inactive: -0.0726
O=C(OCC(O)CO)c1ccccc1Nc1ccnc2cc(Cl)ccc12 (centres undefined) [Glafenine hydrochloride]	inactive: 0.834
NC(=O)c1cn(Cc2c(F)cccc2F)nn1 [Rufinamide]	inactive: 0.403
CC(C(=O)O)c1ccc(-c2ccccc2)c(F)c1 (centres undefined) [Flurbiprofen]	inactive: -0.793
C[C@H]1O[C@@H](O[C@H]2[C@@H](O)C[C@H](O[C@H]3[C@@H](O)C[C@H](O[C@H]4CC[C@@]5(C)[C@H](CC[C@@H]6[C@@H]5C[C@@H](O)[C@]5(C)[C@@H](C7=CC(=O)OC7)CC[C@]65O)C4)O[C@@H]3C)O[C@@H]2C)C[C@H](O)[C@@H]1O [Digoxin]	active: -2.42
COc1cc([S+](C)[O-])ccc1-c1nc2cccnc2[nH]1 (centres undefined) [Sulmazole]	inactive: 1.19
Nc1nc(CC(=O)Nc2ccc(CCNC[C@H](O)c3ccccc3)cc2)cs1 [Mirabegron]	inactive: 2.84
NC[C@@H]1O[C@H](O[C@H]2[C@@H](O)[C@H](O[C@@H]3[C@@H](O)[C@H](N)C[C@H](N)[C@H]3O[C@H]3O[C@H](CO)[C@@H](O)[C@H](O)[C@H]3N)O[C@@H]2CO)[C@H](N)[C@@H](O)[C@@H]1O [Paromomycin sulfate]	inactive: 0.152
COc1ccccc1OCC(O)CO (centres undefined) [Guaifenesin]	inactive: 1.14
CC(=O)[C@H]1CC[C@H]2[C@@H]3C=CC4=CC(=O)CC[C@@]4(C)[C@@H]3CC[C@]12C [Dydrogesterone]	inactive: 1.07
CN1[C@@H]2CC[C@H]1C[C@@H](OC(=O)c1c[nH]c3ccccc13)C2 [Tropisetron hydrochloride]	inactive: 0.644
Cc1cccc(C)c1OCC(C)N (centres undefined) [Mexiletine hydrochloride]	inactive: -1.11
N#Cc1cc(NC(=O)C(=O)O)c(Cl)c(NC(=O)C(=O)O)c1 [Lodoxamide]	inactive: 0.686
COc1ccc(/C=C/C(=O)Nc2ccccc2C(=O)O)cc1OC [Tranilast]	inactive: 0.231
CCOC(=O)C1=C(COCCN)NC(C)=C(C(=O)OC)C1c1ccccc1Cl (centres undefined) [Amlodipine]	inactive: -1.57
Cc1c(N(C)C)c(=O)n(-c2ccccc2)n1C [Amidopyrine]	inactive: 0.149
Oc1c(Cl)cc(Cl)c(Cl)c1Cc1c(O)c(Cl)cc(Cl)c1Cl [Hexachlorophene]	inactive: -1.28
OC(CNCC(O)C1CCc2cc(F)ccc2O1)C1CCc2cc(F)ccc2O1 (centres undefined) [Nebivolol hydrochloride]	inactive: -0.227
CC(=O)NS(=O)(=O)c1ccc(NC(=O)c2ccccc2C(=O)O)cc1 [Phthalylsulfacetamide]	inactive: 0.552
CC[C@H](C)[C@H](N)C1=N[C@H](C(=O)N[C@@H](CC(C)C)C(=O)N[C@H](CCC(=O)O)C(=O)N[C@H](C(=O)N[C@H]2CCCCNC(=O)[C@H](CC(N)=O)NC(=O)[C@@H](CC(=O)O)NC(=O)[C@H](Cc3cnc[nH]3)NC(=O)[C@@H](Cc3ccccc3)NC(=O)[C@H]([C@@H](C)CC)NC(=O)[C@@H](CCCN)NC2=O)[C@@H](C)CC)CS1 [Bacitracin]	inactive: -1.45
